From the supplement of paper PMC9990464
Where a name gives a salt, the structure may show the parent alone. Some of the results follow. Repeats are few or missing, and single values can be far off.

Each compound was assayed on SKNAS (assay: area under viability curve (10 nM-1 µM), viability relative to solvent or trametinib-only control (AUC (arbitrary, % viability x concentration range)); higher = less growth inhibition (more viable cells)). Settings: 72 h compound exposure (96 h after seeding) h; trametinib co-treatment 0 µM.
Description: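 Four neuroblastoma cell lines (KCNR, SKNBE, SJNB8, SKNAS) were seeded in 384-well plates. At 24 h, 1 µM trametinib or DMSO was added, followed by library compounds at 10 nM, 100 nM and 1 µM. Viability was read by MTT at 96 h and normalised to solvent-treated cells (DMSO arm) or to trametinib-only cells (trametinib arm). The area under the 3-point viability curve was computed in GraphPad Prism; units are as given (approx. 100000 = no effect).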
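Further: KCNR is a neuroblastoma cell line carrying an ALK mutation, in this DMSO arm without trametinib, viability was normalised to solvent-treated cells.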

SMILES | area under viability curve
O=C(CCCN1C(=O)c2cccc3cccc(c23)C1=O)NO [Nullscript] | 97800
C=C1C(=O)O[C@@H](CCC)[C@@H]1C(=O)O [Butyrolactone 3] | 102000
O=c1[nH]c(=O)n(C2CCCO2)cc1F (stereo not drawn) [Tegafur] | 92600
C#Cc1cccc(Nc2ncnc3cc(OCCOC)c(OCCOC)cc23)c1 [Erlotinib mesylate] | 104000
CC(C)C[C@H](NC(=O)[C@@H](Cc1c[nH]c2ccccc12)NC(=O)[C@H](Cc1ccc(O)cc1)NC(=O)[C@H](CO)NC(=O)[C@H](Cc1c[nH]c2ccccc12)NC(=O)[C@H](Cc1cnc[nH]1)NC(=O)[C@@H]1CCC(=O)N1)C(=O)N[C@@H](CCCN=C(N)N)C(=O)N1CCC[C@H]1C(=O)NCC(N)=O [Triptorelin acetate] | 74500
CC[C@@]1(O)C(=O)OCc2c1cc1n(c2=O)Cc2cc3cc(O)ccc3nc2-1 [10-Hydroxycamptothecin] | 29300
COc1cc([C@@H]2c3cc4c(cc3[C@@H](O[C@@H]3O[C@@H]5CO[C@@H](C)O[C@H]5[C@H](O)[C@H]3O)[C@H]3COC(=O)[C@H]23)OCO4)cc(OC)c1O [Etoposide] | 100000
CC(/C=C/C(=O)NO)=C\[C@@H](C)C(=O)c1ccc(N(C)C)cc1 [Trichostatin A] | 34500
COc1cc2c(cc1OC)CN(CCc1ccc(NC(=O)c3cccc4c(=O)c5cccc(OC)c5[nH]c34)cc1)CC2 [Elacridar HCl] | 86900
CCOc1ccn(-c2ccc(F)cc2)c(=O)c1C(=O)Nc1ccc(Oc2ccnc(N)c2Cl)c(F)c1 | 126000
Cc1cn(-c2cc(NC(=O)c3ccc(C)c(Nc4nccc(-c5cccnc5)n4)c3)cc(C(F)(F)F)c2)cn1 [Nilotinib] | 119000
COc1cccc2c1C(=O)c1c(O)c3c(c(O)c1C2=O)C[C@@](O)(C(=O)CO)C[C@@H]3O[C@H]1C[C@H](N)[C@H](O)[C@H](C)O1 [Doxorubicin hydrochloride] | 53100

Same assay, conditions: 72 h compound exposure (96 h after seeding) h; trametinib co-treatment 1 µM

SMILES | area under viability curve
CC1(C)CNc2cc(NC(=O)c3cccnc3NCc3ccncc3)ccc21 [Motesanib] | 100000
CC(C)[C@H](O)C(=O)N[C@@H](C)C(=O)N[C@@H]1C(=O)N(C)CCc2ccccc21 [Semagacestat] | 98700
CCOc1cc2ncc(C#N)c(Nc3ccc(OCc4ccccn4)c(Cl)c3)c2cc1NC(=O)/C=C/CN(C)C [Neratinib] | 98800
Cc1cccn2c(=O)c(C=C(C#N)c3nc4ccccc4s3)c(Oc3ccc(F)cc3)nc12 | 102000
N.N.O=C([O-])C[O-].[Pt+2] [Nedaplatin] | 99500
Cc1cc(Nc2cc(N3CCN(C)CC3)nc(Sc3ccc(NC(=O)C4CC4)cc3)n2)n[nH]1 [Tozasertib] | 59000
CC(=O)Nc1ccc(C(=O)Nc2ccccc2N)cc1 [Tacedinaline] | 104000
C=C(C)[C@@H](CC=C(C)C)C[C@@]12C[C@@H](CC=C(C)C)C(C)(C)[C@@](CC=C(C)C)(C(=O)C(C(=O)c3ccc(O)c(O)c3)=C1O)C2=O [Garcinol] | 98200
CNC(=O)c1ccc(N2C(=S)N(c3ccc(C#N)c(C(F)(F)F)c3)C(=O)C2(C)C)cc1F [Enzalutamide] | 103000
CN1CC[C@H](c2c(O)cc(O)c3c(=O)cc(-c4ccccc4Cl)oc23)[C@H](O)C1 [Flavopiridol] | 58100
CC(C)C1O[C@H](CN)[C@@H](CN)O1.O=C([O-])CC(=O)[O-].[Pt+2] [Eptaplatin] | 106000
Nc1nc(OCc2ccccc2)c2nc[nH]c2n1 [O6-Benzylguanine] | 99200
CC(=O)O[C@H]1C(=O)[C@@]2(C)[C@H]([C@H](OC(=O)c3ccccc3)[C@]3(O)C[C@H](OC(=O)[C@H](O)[C@@H](NC(=O)c4ccccc4)c4ccccc4)C(C)=C1C3(C)C)[C@]1(OC(C)=O)CO[C@@H]1C[C@@H]2O [7-epi-Taxol] | 20900
C[C@]1(c2nc3c(C(N)=O)cccc3[nH]2)CCCN1 [Veliparib] | 102000
COc1cc2c(Oc3ccc4[nH]c(C)cc4c3F)ncnc2cc1OCCCN1CCCC1 [Cediranib] | 96000
O=Nc1ccc(O)c2ncccc12 | 98500
Cc1ccc(NC(=O)c2ccc(CN3CCN(C)CC3)cc2)cc1Nc1nccc(-c2cccnc2)n1 [Imatinib mesylate] | 93200
CCc1c2c(nc3ccc(O)cc13)-c1cc3c(c(=O)n1C2)COC(=O)[C@]3(O)CC [7-Ethyl-10-hydroxycamptothecin] | 30800

SMILES | area under viability curve
O=C1c2c(O)ccc(O)c2C(=O)c2c(NCCNCCO)ccc(NCCNCCO)c21 [Mitoxanthrone HCl] | 41800
CC(C)(C)c1nc(-c2cccc(NS(=O)(=O)c3c(F)cccc3F)c2F)c(-c2ccnc(N)n2)s1 [Dabrafenib] | 104000
CC(=O)[O-].CC(=O)[O-].N.NC1CCCCC1.[Cl-].[Cl-].[Pt+4] [Satraplatin] | 93900
COc1cc2c(cc1OC)CN(CCc1ccc(NC(=O)c3cc(OC)c(OC)cc3NC(=O)c3cnc4ccccc4c3)cc1)CC2 [Tariquidar] | 101000
CC1(C)CCC(CN2CCN(c3ccc(C(=O)NS(=O)(=O)c4ccc(NCC5CCOCC5)c([N+](=O)[O-])c4)c(Oc4cnc5[nH]ccc5c4)c3)CC2)=C(c2ccc(Cl)cc2)C1 [Venetoclax] | 66300
CN(C)C(=O)c1cc2cnc(Nc3ccc(N4CCNCC4)cn3)nc2n1C1CCCC1 [Ribociclib] | 97100
O=C(CCCN1C(=O)c2cccc3cccc(c23)C1=O)NO [Nullscript] | 98900
C=C1C(=O)O[C@@H](CCC)[C@@H]1C(=O)O [Butyrolactone 3] | 99600
O=c1[nH]c(=O)n(C2CCCO2)cc1F (stereo not drawn) [Tegafur] | 98600
C#Cc1cccc(Nc2ncnc3cc(OCCOC)c(OCCOC)cc23)c1 [Erlotinib mesylate] | 94900
CC(C)C[C@H](NC(=O)[C@@H](Cc1c[nH]c2ccccc12)NC(=O)[C@H](Cc1ccc(O)cc1)NC(=O)[C@H](CO)NC(=O)[C@H](Cc1c[nH]c2ccccc12)NC(=O)[C@H](Cc1cnc[nH]1)NC(=O)[C@@H]1CCC(=O)N1)C(=O)N[C@@H](CCCN=C(N)N)C(=O)N1CCC[C@H]1C(=O)NCC(N)=O [Triptorelin acetate] | 98200
CC[C@@]1(O)C(=O)OCc2c1cc1n(c2=O)Cc2cc3cc(O)ccc3nc2-1 [10-Hydroxycamptothecin] | 31300
COc1cc([C@@H]2c3cc4c(cc3[C@@H](O[C@@H]3O[C@@H]5CO[C@@H](C)O[C@H]5[C@H](O)[C@H]3O)[C@H]3COC(=O)[C@H]23)OCO4)cc(OC)c1O [Etoposide] | 75600
CC(/C=C/C(=O)NO)=C\[C@@H](C)C(=O)c1ccc(N(C)C)cc1 [Trichostatin A] | 28900
COc1cc2c(cc1OC)CN(CCc1ccc(NC(=O)c3cccc4c(=O)c5cccc(OC)c5[nH]c34)cc1)CC2 [Elacridar HCl] | 95500
CCOc1ccn(-c2ccc(F)cc2)c(=O)c1C(=O)Nc1ccc(Oc2ccnc(N)c2Cl)c(F)c1 | 98900
Cc1cn(-c2cc(NC(=O)c3ccc(C)c(Nc4nccc(-c5cccnc5)n4)c3)cc(C(F)(F)F)c2)cn1 [Nilotinib] | 99000
COc1cccc2c1C(=O)c1c(O)c3c(c(O)c1C2=O)C[C@@](O)(C(=O)CO)C[C@@H]3O[C@H]1C[C@H](N)[C@H](O)[C@H](C)O1 [Doxorubicin hydrochloride] | 36000
